# The whole screen tested about 310,000 compounds, of which about 2,200 (0.71%) showed an effect of 50% or more. The effect is printed as a negative number. The list shows a part of the results.
# Biological target: human ether-à-go-go-related gene (hERG) potassium channel (human, UniProt Q12809)
# Assay: primary screen, population patch clamp on CHO cells stably expressing hERG
# Sequence of human ether-à-go-go-related gene (hERG) potassium channel (Q12809 whole entry, looked up): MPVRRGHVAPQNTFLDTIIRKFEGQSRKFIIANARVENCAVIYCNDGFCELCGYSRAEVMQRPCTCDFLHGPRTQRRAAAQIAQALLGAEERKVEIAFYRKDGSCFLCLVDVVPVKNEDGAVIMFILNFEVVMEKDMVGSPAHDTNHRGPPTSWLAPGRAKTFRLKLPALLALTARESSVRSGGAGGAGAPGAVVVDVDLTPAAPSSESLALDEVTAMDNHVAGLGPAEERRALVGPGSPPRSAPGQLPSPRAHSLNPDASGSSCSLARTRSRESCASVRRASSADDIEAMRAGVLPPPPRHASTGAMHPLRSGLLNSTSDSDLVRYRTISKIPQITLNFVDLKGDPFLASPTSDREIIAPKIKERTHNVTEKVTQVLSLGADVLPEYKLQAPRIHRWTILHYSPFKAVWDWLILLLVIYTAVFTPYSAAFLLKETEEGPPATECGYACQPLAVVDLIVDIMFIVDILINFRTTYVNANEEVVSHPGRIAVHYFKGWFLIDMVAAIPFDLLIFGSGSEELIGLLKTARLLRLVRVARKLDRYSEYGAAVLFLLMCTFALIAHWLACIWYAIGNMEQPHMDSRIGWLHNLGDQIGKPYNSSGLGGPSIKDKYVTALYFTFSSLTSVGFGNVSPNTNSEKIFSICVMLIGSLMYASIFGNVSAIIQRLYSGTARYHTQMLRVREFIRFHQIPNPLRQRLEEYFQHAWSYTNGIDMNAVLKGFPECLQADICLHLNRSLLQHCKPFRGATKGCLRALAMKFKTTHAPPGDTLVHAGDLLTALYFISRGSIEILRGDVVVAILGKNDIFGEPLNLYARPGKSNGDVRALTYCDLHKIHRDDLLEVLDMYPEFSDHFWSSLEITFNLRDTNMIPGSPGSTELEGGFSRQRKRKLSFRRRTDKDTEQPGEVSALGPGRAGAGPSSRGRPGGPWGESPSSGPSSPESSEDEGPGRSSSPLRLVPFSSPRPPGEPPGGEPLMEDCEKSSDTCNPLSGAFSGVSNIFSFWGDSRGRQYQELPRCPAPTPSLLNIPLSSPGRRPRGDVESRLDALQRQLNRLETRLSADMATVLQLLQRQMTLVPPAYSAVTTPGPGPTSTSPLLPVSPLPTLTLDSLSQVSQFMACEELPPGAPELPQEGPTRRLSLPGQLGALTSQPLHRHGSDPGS
row,Compound,"hERG current change (%, negative = inhibition) at 1uM [%]"
1,O=C(N/N=C/c1ccco1)c1ccccc1OCc1ccccc1Cl,-9.15
2,COc1cc(C(=O)NCCN2C(=O)S/C(=C\c3cccs3)C2=O)cc(OC)c1OC,-4.49
3,CCCCn1c(NC(C)CC)nc2c1c(=O)[nH]c(=O)n2C (stereo not drawn),0.828
4,O=c1oc2cc(OCc3ccc(F)cc3F)ccc2cc1-c1ccccn1,12.9
5,Cc1ccccc1Cn1ccc(NC(=O)c2onc(C)c2Cl)n1,11.7
6,COc1cc(CN2CCNC(=O)C2CC(=O)N2CCCCO2)cc(OC)c1 (stereo not drawn),11.2
7,CN(C)CCCN(CCCN(C)C)C(=S)Nc1ccc(S(=O)(=O)N2CCOCC2)cc1,8.16
8,CCOC(=O)C1=C(C)N(c2ccc(C)c(C)c2)C(=O)/C1=C\c1ccco1,2.1
9,Cc1ccc(CSCCNS(=O)(=O)c2ccc([N+](=O)[O-])cc2)cc1,14
10,CC(C)(C)NC(=O)COC(=O)c1ccc(F)cc1Cl,12.6
11,C/C(=C\c1ccccc1)CN1CCC(C(=O)N2CCC(C)CC2)CC1.O=C(O)C(=O)O,-35.2
12,CC(C)CN(C(=O)COC(=O)c1ccc(Cl)c(N)c1)c1c(N)n(Cc2ccccc2)c(=O)[nH]c1=O,-14.3
13,O=C(C1=C[C@H](c2csc3ccccc23)C[C@H](OCc2ccc(CO)cc2)O1)N1CCOCC1,-15.8
14,COc1ccc(Cc2nc3ccc(C(=O)NCCCSC)cc3o2)cc1OC,8.46
15,COc1ccccc1-c1cc(C(=O)N/N=C/c2ccoc2)c2ccccc2n1,17.8
16,CC(=O)C1=C(C)NC(SCC(=O)Nc2nc3ccccc3s2)=C(C#N)C1c1ccc(Cl)cc1 (stereo not drawn),6.27
17,O=C(O)c1ccc(CN(c2ccccc2)S(=O)(=O)c2ccccc2)cc1,23
18,Cc1cc(N2CCCCC2)nc2ccc(NC(=O)CCC(=O)NCCC(C)C)cc12,-11.5
19,Cc1cc(C)n(C(=O)c2ccc(S(=O)(=O)N3CCOCC3)cc2)n1,0.4
20,COc1ccc(S(=O)(=O)N2CCN=C2SCc2cccnc2)cc1,-2.53
21,COCCN1C(=O)/C(=C/c2ccc(N3CCCC3)cc2)SC1=S,7.89
22,CN(C(=O)COC(=O)c1cccc(S(=O)(=O)N2CCCCCC2)c1)C1CCS(=O)(=O)C1 (stereo not drawn),1.3

row,Compound,"hERG current change (%, negative = inhibition) at 1uM [%]"
1,COCCNc1nnc(SCC(=O)NC2CCCCC2)s1,6.58
2,CC1(C)Cc2c(C#N)c(N3CCOCC3)nc(-c3ccccc3)c2CO1,7.95
3,CCC(C)Oc1nc2ccccc2nc1NS(=O)(=O)c1ccccc1 (stereo not drawn),9.52
4,COc1cc(C(=O)OCCCN=C2NS(=O)(=O)c3ccccc32)cc(OC)c1OC,7.11
5,CCOc1ccc(C(=O)c2ccc(OCC)c(N)c2)cc1N,10.6
6,Cn1c(/C(C#N)=C(\O)c2cccc(F)c2)nc2ccccc21,12.1
7,CC(C)c1ccc(NC2CCCN(C(=O)CCN3CCCCO3)C2)cc1 (stereo not drawn),4.34
8,NNC(=O)c1cc(C23CC4CC(CC(C4)C2)C3)nc2ccccc12,14.5
9,COc1ccc(NC2C=CS(=O)(=O)C2)cc1 (stereo not drawn),13.9
10,COc1ccccc1NC(=O)/C(C#N)=C/c1cccnc1,8.26
11,COc1ccc(N(CC(=O)NC2CCCCC2)C(=O)c2ccc(C)s2)cc1OC,17.2
12,CC(=O)c1ccc(NC(=O)CSc2nc(=O)n3cccc(C)c3n2)cc1,-3.31
13,C#CCOCCOCCOCCNc1nc(N2CCN(C(=O)[C@H]([C@@H](C)CC)n3cc(CCC[NH+]=C(N)N)nn3)CC2)nc(N2CCN(C(=O)[C@H](CCCC[NH3+])n3cc(CCC(=O)O)nn3)CC2)n1.[Cl-],11.9
14,CCCC12CN3CCN(CC(C3)/C1=N\NC(=O)c1ccncc1)C2,16.2
15,Cc1cc(=O)oc2cc(OCCSCCN3CCCC3)ccc12,11.6
16,O=C(OCC(=O)N1CCN(C(=O)c2ccco2)CC1)c1cc(=O)c2ccccc2o1,10
17,O=C(Cc1nn[nH]n1)Nc1cc(Cl)cc(Cl)c1,9.4
18,CC(=O)N(CCc1ccccc1)Cc1cc2ccc(C)c(C)c2[nH]c1=O,7.79
19,COCCN(C(=O)COC(=O)C1COc2ccccc2O1)c1c(N)n(Cc2ccccc2)c(=O)[nH]c1=O (stereo not drawn),11.1
20,S=C(NCCCN1CCOCC1)Nc1ccc(N2CCOCC2)cc1,13.1
21,O=S1(=O)C=CC(Nc2ccccc2)C1 (stereo not drawn),-44.7
22,CCOC(=O)c1ccc(COC(=O)c2nonc2N)cc1,4.67

row,Compound,"hERG current change (%, negative = inhibition) at 1uM [%]"
1,O=C(Oc1cccc(F)c1)c1ccc2c(=O)n3c(nc2c1)CCC3,2.01
2,Cc1ccc(C)c(S(=O)(=O)N2CCN(C(=O)Cc3ccccc3)CC2)c1,-6.34
3,CCn1c(-c2nn(C)c(C)c2Cl)n[nH]c1=S,16.4
4,O=C(O)c1cccc(NC(=O)c2cn(-c3ccccc3)nc2-c2ccc([N+](=O)[O-])cc2)c1,13.6
5,Cc1c(C(=O)OC(C)C)sc(NC(=O)c2cccnc2)c1C#N,4.23
6,O=C(NCc1cccs1)c1cnn2cccnc12,-3.52
7,CC1(C)CC(=O)C2=C(C1)OC(c1ccc(O)cc1)C(C#N)=C2N (stereo not drawn),6.42
8,CC(NC(=O)c1ccc(S(=O)(=O)N(C)C)cc1)c1ccc(-n2ccnc2)cc1 (stereo not drawn),-40.5
9,CC(=O)C1=C(c2ccccc2)NC(=O)NC1c1ccccc1OCC(=O)NCc1ccccc1 (stereo not drawn),12.5
10,CC1=CC(c2ccc(Cl)cc2)n2nc(NC(=O)CCC(=O)O)nc2N1 (stereo not drawn),14.7
11,O=C/C(=C\Nc1ccccn1)c1nc2cc(Cl)ccc2o1,19.2
12,COC(=O)c1nc2cc3c(cc2c(C)c1C(=O)OC)OCO3,14.1
13,C/C(CC(=O)Nc1ccc2c(c1)OCCO2)=N\NC(=O)Cc1ccccc1,15.3
14,C=CCNc1nc(N2CCCCC2)c(C#N)c2c1CN(Cc1ccccc1)CC2,9.15
15,COc1ccccc1C(C)NS(=O)(=O)c1ccc(Cl)nc1 (stereo not drawn),1.47
16,COC(=O)C1=C(c2cc3ccccc3s2)C[C@@H]2CC[C@H]1N2C(=O)NC1CC1,3.81
17,CC(CCc1ccco1)NC(=O)Cn1ncc2c(=O)oc3ccccc3c21 (stereo not drawn),1.54
18,Cc1cccc(C(=O)Nc2cccc3cccnc23)c1,17.4
19,CC1CCN(C(=O)c2ccc(NC(=O)c3ccccc3)cc2)CC1,9.95
20,Cc1ccc2cccc(OC(=O)N3CCCC3)c2n1,12.8
21,Cc1ccc2nc(NC3=NC(CC(=O)O)C(=O)N3)nc(C)c2c1 (stereo not drawn),6.92
22,O=C(NCC(c1cccnc1)N1CCOCC1)c1cccs1 (stereo not drawn),15.6

row,Compound,"hERG current change (%, negative = inhibition) at 1uM [%]"
1,CCOC(=O)C1CCN(S(=O)(=O)c2c(C)n(C)c(=O)n(C)c2=O)CC1,5.57
2,N/C(=N\OC(=O)CCc1ccccc1)c1cccnc1,14
3,CCOC(=O)CSc1ncc(-c2cccc(Cl)c2)cn1,3.31
4,O=[N+]([O-])c1cc2c(cc1/C=N/n1c(-c3ccccn3)n[nH]c1=S)OCO2,6.43
5,COc1cccc(Oc2nccc(N(C)C)c2C#N)c1,16.7
6,O=C(NCc1ccccn1)C(=O)NCC1OCCN1S(=O)(=O)c1ccc(Br)cc1 (stereo not drawn),11.2
7,CCn1cc(C(=O)NCc2ccccc2Cl)cn1,16.3
8,N#CC1=C(N)S[C@@H](C(=O)c2ccc(F)cc2)[C@@H]1c1cccs1,7.8
9,c1ccc2c(c1)OCC(CNc1ncnc3sccc13)O2 (stereo not drawn),6.61
10,Cc1ccc(NC(=O)c2ccco2)c(NC(=O)c2ccccc2)c1,2.72
11,CCC(C)Nc1nc2c(c(=O)[nH]c(=O)n2C)n1CCC(C)C (stereo not drawn),9.56
12,CCCCN(C(=O)c1ccc(COc2ccccc2)o1)c1c(N)n(CC(C)C)c(=O)[nH]c1=O,15.1
13,CN1CCc2c(sc3c2C(=O)NC(c2ccc4c(c2)OCO4)N3)C1 (stereo not drawn),-2.85
14,CCC(C)Sc1nc2c(cnn2-c2ccc(F)cc2)c(=O)[nH]1 (stereo not drawn),6.66
15,CCOC(=O)N1CCN(C(=O)c2c[nH]c3ccc(S(=O)(=O)N(C)c4cccc(C)c4)cc3c2=O)CC1,21.8
16,C=CCn1c(SCC(=O)N2CCN(c3ccc(F)cc3)CC2)nnc1-c1cccs1,-52.4
17,CCOC(=O)C1CCCCN1Cc1ccc(OC)c(OC)c1OC (stereo not drawn),-14.4
18,O=C(/C=C/c1ccc(NC(=O)c2ccccc2-c2ccccc2C(=O)O)cc1)c1ccccc1,14.4
19,O=c1c2c(-c3ccccc3)csc2ncn1/N=C/c1c2ccccc2cc2ccccc12,0.841
20,CC(C)Cn1cnc2c1c(=O)n(CC(=O)NN)c(=O)n2Cc1ccccc1,13.9
21,Cc1ccc(S(=O)(=O)NCc2ccc(C(=O)NC3CCCCC3)cc2)cc1,11.5
